Results as given in US20090054323A1 (published 2009).

Assays:
human Ang-2 [1] = biological target: T1, human Ang-2 (human, UniProt O15123 19-496, limits assumed); assay: neutralization ELISA vs Tie-2-Fc
T1 construct: Sources differ by assay: R&D Systems 623-AN (mixture of 2 truncated versions) for initial screening; also called hAng-2; huAng-2
T1 sequence (looked up): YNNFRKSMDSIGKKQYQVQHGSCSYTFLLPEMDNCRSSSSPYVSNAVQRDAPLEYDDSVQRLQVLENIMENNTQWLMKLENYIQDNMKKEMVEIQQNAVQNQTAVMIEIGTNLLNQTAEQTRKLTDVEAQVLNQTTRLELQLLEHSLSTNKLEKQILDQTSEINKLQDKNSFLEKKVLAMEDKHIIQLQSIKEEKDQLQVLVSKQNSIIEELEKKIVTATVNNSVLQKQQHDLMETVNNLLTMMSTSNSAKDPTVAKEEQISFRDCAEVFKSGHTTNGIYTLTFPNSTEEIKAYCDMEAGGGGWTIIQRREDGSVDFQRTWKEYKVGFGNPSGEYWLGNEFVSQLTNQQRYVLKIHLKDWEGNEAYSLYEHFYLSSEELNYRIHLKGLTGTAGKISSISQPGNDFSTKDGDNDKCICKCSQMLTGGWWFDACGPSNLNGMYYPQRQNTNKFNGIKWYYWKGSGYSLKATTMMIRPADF
Method: (§1) Microtiter plates to which human Ang-2 polypeptide was bound were prepared as described for the Affinity ELISA. […] Next, about 100 microliters per well of goat anti-mouse-IgG-HRP (Pierce Chemical CO., catalog #31432) was added at a dilution of 1:10,000 in PBS containing about 1 percent BSA. Plates were incubated at room temperature for about 1 hour, after which they were washed five times with PBS containing about 0.1 percent Tween-20. About 100 microliters per well of TMB substrate (described above) was then added and color was allowed to develop. Absorbance was then read in a spectrophotomer at 370 nm.

murine Ang-2 = biological target: T2, murine Ang-2 (murine, UniProt O35608 19-496, limits assumed); assay: neutralization ELISA vs Tie-2-Fc
T2 construct: also called mAng-2; mouse Ang-2
T2 sequence (looked up): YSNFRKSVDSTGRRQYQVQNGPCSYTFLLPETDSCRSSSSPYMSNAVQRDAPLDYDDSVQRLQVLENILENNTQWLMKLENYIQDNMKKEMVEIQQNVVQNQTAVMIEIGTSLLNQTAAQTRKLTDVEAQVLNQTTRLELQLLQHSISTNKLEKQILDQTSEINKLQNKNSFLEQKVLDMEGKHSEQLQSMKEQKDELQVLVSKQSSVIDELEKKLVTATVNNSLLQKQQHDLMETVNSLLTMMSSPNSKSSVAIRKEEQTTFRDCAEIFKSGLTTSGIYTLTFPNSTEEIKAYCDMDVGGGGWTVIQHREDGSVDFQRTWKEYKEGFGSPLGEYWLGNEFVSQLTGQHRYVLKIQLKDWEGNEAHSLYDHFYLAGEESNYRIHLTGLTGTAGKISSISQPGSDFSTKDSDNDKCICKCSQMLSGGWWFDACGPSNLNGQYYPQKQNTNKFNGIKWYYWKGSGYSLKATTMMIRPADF
Method: as §1

human Ang-1 = biological target: T3, human Ang-1 (human, UniProt Q15389 16-498, limits assumed); assay: neutralization ELISA vs Tie-2-Fc
T3 construct: also called hAng-1
T3 sequence (looked up): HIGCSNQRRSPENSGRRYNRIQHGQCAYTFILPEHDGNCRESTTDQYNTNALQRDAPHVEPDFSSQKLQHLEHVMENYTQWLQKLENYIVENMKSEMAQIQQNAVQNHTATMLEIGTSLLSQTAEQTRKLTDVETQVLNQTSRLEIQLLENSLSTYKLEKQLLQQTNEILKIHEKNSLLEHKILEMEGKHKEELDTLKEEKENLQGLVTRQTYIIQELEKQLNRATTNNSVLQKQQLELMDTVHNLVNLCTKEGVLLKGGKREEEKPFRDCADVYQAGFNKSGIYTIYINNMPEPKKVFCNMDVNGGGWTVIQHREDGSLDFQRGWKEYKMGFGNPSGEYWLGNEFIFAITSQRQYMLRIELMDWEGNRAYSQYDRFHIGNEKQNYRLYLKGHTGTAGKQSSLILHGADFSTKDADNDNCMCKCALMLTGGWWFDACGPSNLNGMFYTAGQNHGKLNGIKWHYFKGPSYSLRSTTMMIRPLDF
Method: Plates were incubated at room temperature for about 1 hour, after which they were washed five times with PBS containing about 0.1 percent Tween-20. […] Absorbance was then read in a spectrophotomer at 370 nm.

human Ang-2 [2] = biological target: T1, human Ang-2; assay: BIAcore, peptibody captured on Protein G
human Ang-2 [3] = biological target: T1, human Ang-2; assay: KinExA, solution equilibrium, huAng-2-coated beads

B1: 2xCon4 (C) 1K (Fc fusion)
chain: [human IgG1 Fc not written out]GGGGGAQQEECEWDPWTCEHMGSGSATGGSGSTASSGSGSATHQEECEWDPWTCEHMLE
notes: also called Pb5714
IC50 (human Ang-2 [1]): 40 pM
IC50 (murine Ang-2): 20 pM
IC50 (human Ang-1): 3000 pM
Kd (human Ang-2 [2]): 340 pM
koff (human Ang-2 [2]): 0.00016 s⁻¹
kon (human Ang-2 [2]): 480000 M⁻¹ s⁻¹
Kd (human Ang-2 [3]): ~2 pM
